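Method: 48-hour compound exposure of cells in 96-well plates, five concentrations, linear interpolation of endpoints. The concentration for 50% growth inhibition is given as GI50.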 A number of entries come with more than one value. This is not the full list of results. The source may hold further records. The tests behind the records often covered other concentration ranges, which the source does not state; some values may only mark the edge of a range.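 The concentration for full growth arrest is given as TGI.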
Tests used:
Assay in all cases: DTP human tumour cell line panel, 48 h
MDA-MB-231 breast = tested on: MDA-MB-231 breast
HCT-15 colon = tested on: HCT-15 colon
CCRF-CEM leukemia = tested on: CCRF-CEM leukemia
RPMI-8226 leukemia = tested on: RPMI-8226 leukemia
U251 CNS = tested on: U251 CNS
LOX IMVI melanoma = tested on: LOX IMVI melanoma
NCI-H460 lung = tested on: NCI-H460 lung
NCI-H23 lung = tested on: NCI-H23 lung
OVCAR-8 ovarian = tested on: OVCAR-8 ovarian
KM12 colon = tested on: KM12 colon
HL-60(TB) leukemia = tested on: HL-60(TB) leukemia
SF-295 CNS = tested on: SF-295 CNS
COLO 205 colon = tested on: COLO 205 colon
UACC-257 melanoma = tested on: UACC-257 melanoma
M19-MEL melanoma = tested on: M19-MEL melanoma
DMS 273 small cell lung = tested on: DMS 273 small cell lung
HOP-62 NSCLC = tested on: HOP-62 NSCLC
DMS 114 small cell lung = tested on: DMS 114 small cell lung
SF-268 CNS = tested on: SF-268 CNS
EKVX NSCLC = tested on: EKVX NSCLC
DLD-1 colon = tested on: DLD-1 colon
OVCAR-5 ovarian = tested on: OVCAR-5 ovarian
UACC-62 melanoma = tested on: UACC-62 melanoma
XF 498 CNS = tested on: XF 498 CNS
SN12K1 renal = tested on: SN12K1 renal
SK-OV-3 ovarian = tested on: SK-OV-3 ovarian
KM20L2 colon = tested on: KM20L2 colon
NCI-H522 lung = tested on: NCI-H522 lung
SW-620 colon = tested on: SW-620 colon
MCF7 breast = tested on: MCF7 breast
K-562 leukemia = tested on: K-562 leukemia
NCI/ADR-RES ovarian = tested on: NCI/ADR-RES ovarian
SNB-75 CNS = tested on: SNB-75 CNS
A498 renal = tested on: A498 renal
SK-MEL-5 melanoma = tested on: SK-MEL-5 melanoma
HCC-2998 colon = tested on: HCC-2998 colon
OVCAR-4 ovarian = tested on: OVCAR-4 ovarian
SN12C renal = tested on: SN12C renal
SK-MEL-28 melanoma = tested on: SK-MEL-28 melanoma
OVCAR-3 ovarian = tested on: OVCAR-3 ovarian
IGROV1 ovarian = tested on: IGROV1 ovarian
A549 NSCLC = tested on: A549 NSCLC
HOP-92 NSCLC = tested on: HOP-92 NSCLC
RXF 393 renal = tested on: RXF 393 renal
HT29 colon = tested on: HT29 colon
SK-MEL-2 melanoma = tested on: SK-MEL-2 melanoma
SNB-78 CNS = tested on: SNB-78 CNS

CC1=C2C(=CC(C)(C)[C@@H]2O)C(=O)[C@](C)(O)C12CC2
TGI (MDA-MB-231 breast): 20.5 nM [1 test] and 368 nM [mean of 4 tests]
TGI (HCT-15 colon): 29.9 nM and 1.09 µM
TGI (CCRF-CEM leukemia): 131 nM and 2.57 µM
GI50 (RPMI-8226 leukemia): 1.51 µM [1 test] and 71.4 nM [mean of 4 tests]
TGI (RPMI-8226 leukemia): 6.8 µM [1 test] and 647 nM [mean of 4 tests]
TGI (U251 CNS): 124 nM and 10.4 µM

C[C@@H]1O[C@@H](O[C@H]2CC[C@]3(C=O)[C@H]4CC[C@]5(C)[C@@H](c6ccc(=O)oc6)CC[C@]5(O)[C@@H]4CC[C@]3(O)C2)[C@H](O)[C@H](O)[C@H]1O[C@@H]1O[C@H](CO)[C@@H](O)[C@H](O)[C@H]1O
TGI (LOX IMVI melanoma): 0.28, 45.7, 30.9, 242 nM
TGI (NCI-H460 lung): 0.0387 nM, 29.5 nM, 24.2 nM
TGI (NCI-H23 lung): 0.0009 nM and 14.2 nM
TGI (OVCAR-8 ovarian): 0.765, 60.7, 40, 40.3 nM
TGI (KM12 colon): 0.456, 107, 133, 65.7 nM
TGI (HL-60(TB) leukemia): 0.00108 nM, 18.2 nM, 67.4 nM
TGI (SF-295 CNS): 0.337, 50.2, 25.3, 42 nM
TGI (COLO 205 colon): 3.75 nM, 68.1 nM, 65.9 nM
TGI (UACC-257 melanoma): 1.37, 58.2, 42.4, 667 nM
TGI (HCT-15 colon): 0.697, 50.3, 68.3, 60.7 nM
GI50 (M19-MEL melanoma): 0.00752 nM [1 test] and 32.8 nM [mean of 5 tests]
TGI (M19-MEL melanoma): 3.75 nM, 120 nM, 47.4 nM
GI50 (DMS 273 small cell lung): 0.000377 nM [1 test] and 37.5 nM [mean of 4 tests]
TGI (DMS 273 small cell lung): 0.245 nM, 25.6 nM, 39.7 nM
TGI (HOP-62 NSCLC): 0.375, 30, 21.4, 37.6 nM
TGI (DMS 114 small cell lung): 0.461 nM and 13.3 nM
TGI (SF-268 CNS): 0.000989, 26.6, 20.6, 37.6 nM
TGI (EKVX NSCLC): 0.00865 nM, 29.3 nM, 31.5 nM
GI50 (DLD-1 colon): 0.000853 nM [1 test] and 11.9 nM [mean of 5 tests]
TGI (DLD-1 colon): 0.0992 nM [1 test] and 40.7 nM [mean of 5 tests]
TGI (OVCAR-5 ovarian): 1.18, 23.3, 78, 86.6 nM
TGI (UACC-62 melanoma): 3.75, 63.8, 41, 39 nM
GI50 (XF 498 CNS): 0.0215 nM [1 test] and 6.38 nM [mean of 4 tests]
TGI (XF 498 CNS): 0.121 nM, 11.5 nM, 42.6 nM
GI50 (SN12K1 renal): 0.00231 nM [1 test] and 22.8 nM [mean of 5 tests]
TGI (SN12K1 renal): 0.133 nM, 71.6 nM, 39.2 nM
GI50 (SK-OV-3 ovarian): 0.0113 nM [1 test] and 37.5 nM [mean of 5 tests]
TGI (SK-OV-3 ovarian): 2.01 nM, 55.3 nM, 37.7 nM
GI50 (KM20L2 colon): 0.00147 nM [1 test] and 37.5 nM [mean of 5 tests]
TGI (KM20L2 colon): 3.75 nM, 86.4 nM, 48.6 nM
TGI (NCI-H522 lung): 0.0235 nM, 11.2 nM, 12 nM
TGI (SW-620 colon): 3.75, 83.6, 84.7, 37.8 nM
TGI (MCF7 breast): 0.982, 94, 92.1, 69.7 nM
GI50 (K-562 leukemia): 0.00149 nM [1 test] and 37.5 nM [mean of 3 tests]
TGI (K-562 leukemia): 0.635 nM, 136 nM, 66.7 nM
TGI (NCI/ADR-RES ovarian): 0.00269, 56.6, 43.7, 47.5 nM
TGI (SNB-75 CNS): 0.74, 60.8, 78.4, 47.7 nM
TGI (CCRF-CEM leukemia): 0.0568 nM, 37.4 nM, 38 nM
GI50 (A498 renal): 0.0177 nM [1 test] and 37.5 nM [mean of 4 tests]
TGI (A498 renal): 0.269 nM, 141 nM, 48 nM
TGI (SK-MEL-5 melanoma): 0.138 nM, 25.8 nM, 55.8 nM
TGI (HCC-2998 colon): 0.628, 135, 47.4, 52.4 nM
TGI (RPMI-8226 leukemia): 0.208, 88.6, 71.9, 68.1 nM
TGI (OVCAR-4 ovarian): 0.00115 nM, 21 nM, 16.8 nM
TGI (SN12C renal): 3.75, 51.7, 31.4, 63.1 nM
TGI (SK-MEL-28 melanoma): 3.75, 165, 87.5, 94.8 nM
TGI (OVCAR-3 ovarian): 0.00157, 14.7, 55.8, 37.6 nM
GI50 (IGROV1 ovarian): 0.00603 nM [1 test] and 37.5 nM [mean of 5 tests]
TGI (IGROV1 ovarian): 0.375 nM, 142 nM, 462 nM
TGI (A549 NSCLC): 0.000975 nM, 17.6 nM [1 test] and 14.3 nM [mean of 6 tests]
TGI (HOP-92 NSCLC): 0.494, 128, 79.8, 52.3 nM
TGI (RXF 393 renal): 0.000658 nM, 31.8 nM [1 test] and 37.2 nM [mean of 3 tests]
TGI (U251 CNS): 3.75, 78.8, 66.4, 43.4 nM
TGI (HT29 colon): 3.75, 78.3, 61.5, 675 nM
TGI (SK-MEL-2 melanoma): 0.312, 49.2, 46.8, 49.9 nM
GI50 (SNB-78 CNS): < 0.000375 nM [1 test] and 12.4 nM [mean of 5 tests]
TGI (SNB-78 CNS): 2.06 nM, 189 nM, 47.9 nM

— PubChem BioAssay (NCI)
